# This is one part of the list. Values were computed here from the reads of four pooled replicates and scatter widely.
# Molecular target: T1, Pho4 (S. cerevisiae) (UniProt P07270)
# T1 sequence: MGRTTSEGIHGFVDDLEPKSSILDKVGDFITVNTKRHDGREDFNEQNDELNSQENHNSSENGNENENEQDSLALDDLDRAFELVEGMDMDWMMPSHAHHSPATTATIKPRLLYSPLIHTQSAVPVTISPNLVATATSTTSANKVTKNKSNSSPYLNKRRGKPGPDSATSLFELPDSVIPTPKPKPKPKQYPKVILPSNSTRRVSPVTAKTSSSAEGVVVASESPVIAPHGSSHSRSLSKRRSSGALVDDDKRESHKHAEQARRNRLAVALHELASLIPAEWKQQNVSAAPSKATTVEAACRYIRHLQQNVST
# Assay: relative binding free energy (BET-seq); higher = weaker binding
# Details: reference: library average
row,Sequence,relative binding free energy [kcal/mol]
1,TAGGTCACGTGATATT,0.24
2,TTGGCCACGTGTGGTC,-0.05
3,GGGCGCACGTGGATGG,-0.17
4,AGTCTCACGTGTTTGG,0.15
5,GTTCTCACGTGGTTTG,0.32
6,TGGTTCACGTGCCAGT,0.19
7,AGGGCCACGTGAATTT,0.31
8,GTTAGCACGTGGATGA,-0.05
9,GGTGTCACGTGGTAAC,0.04
10,TGCAGCACGTGAAAGG,0.18
11,TATTCCACGTGAGGTA,0.24
12,TCTAGCACGTGGTTAG,-0.12
13,GCAGGCACGTGTCAGG,0.04
14,GAGGGCACGTGGAAAA,0.18
15,TATTTCACGTGGATCG,0.37
16,GATAACACGTGGGTTA,-0.02
17,GAGGACACGTGGTAAG,0.26
18,TATGTCACGTGGTTTG,0.1
19,CCGGGCACGTGGTAGG,-0.27
20,TGCCGCACGTGTTTGG,-0.02
21,TAGACCACGTGGTGTT,-0.03
22,CCGTGCACGTGGGTAG,-0.08
23,GTGGGCACGTGAATTT,0.18
24,CTATACACGTGGTGTT,-0.08
25,ATGTACACGTGCGGGC,0.11

row,Sequence,relative binding free energy [kcal/mol]
1,TGCGACACGTGGTAGG,-0.04
2,TGTACCACGTGCGGGG,-0.26
3,GTGAGCACGTGGGCTC,-0.1
4,ATATGCACGTGTAAGG,0.1
5,CCGAGCACGTGGGGTG,-0.25
6,GTGTTCACGTGATCTT,0.33
7,GAGGTCACGTGATATA,0.21
8,TCGGTCACGTGCTGTA,0.1
9,TTCTACACGTGTGGCG,0.13
10,TTGCACACGTGGTGGC,-0.01
11,GGGCGCACGTGGTCTG,-0.09
12,ATTGCCACGTGCTGGT,-0.14
13,GGATCCACGTGTTTTT,0.14
14,TATCGCACGTGGATGT,-0.03
15,TTGTCCACGTGGTTGA,0.06
16,GGCTTCACGTGGAGGG,0.3
17,TGTGACACGTGTCGTG,-0.03
18,AGGTACACGTGGTTTC,0.05
19,AGTGGCACGTGTGTTA,-0.01
20,CGGGTCACGTGCAGGT,0.11
21,CGGTTCACGTGTGGCG,0.27
22,GAGCTCACGTGGGGTG,0.01
23,CATGGCACGTGCTTGG,-0.14
24,GATGACACGTGTAATT,0.17
25,TAATGCACGTGTAAGG,0.12

row,Sequence,relative binding free energy [kcal/mol]
1,GACGTCACGTGGGGCG,0
2,TGTGGCACGTGGCAGG,-0.07
3,CTTGGCACGTGCCGGT,-0.19
4,GGGGTCACGTGGGCGG,0.03
5,GGGGACACGTGAAGGT,0.2
6,TCTATCACGTGTTGAG,0.2
7,ATTTACACGTGAGGCA,0.26
8,TTGGGCACGTGAAGTC,0.14
9,GTCAGCACGTGTAGGA,-0.03
10,TAAGCCACGTGTAGGG,0.04
11,AGGTGCACGTGGCATG,-0.19
12,GCTCTCACGTGGGTTG,0.11
13,TGTGACACGTGGATTT,-0.05
14,AAAGGCACGTGGGCGA,-0.14
15,TTCTGCACGTGAGTGG,0.17
16,TGTATCACGTGCTGAT,0.1
17,TCGGTCACGTGGGTCG,-0.14
18,AGGGACACGTGGTCTG,-0.22
19,TTTAACACGTGAGAAG,0.34
20,AGGTTCACGTGTGGTT,0.3
21,GTAAACACGTGGGATT,-0.06
22,TTAAGCACGTGGCAGT,-0.1
23,GCAGGCACGTGTGTTA,-0.13
24,GGATACACGTGGAGGC,0.09
25,CTGGCCACGTGAGTTT,0.31

row,Sequence,relative binding free energy [kcal/mol]
1,TTATGCACGTGCATGG,-0.12
2,TTGTACACGTGTTTAT,0.04
3,AGTAACACGTGGGATA,-0.15
4,ATTTACACGTGTGATA,0.12
5,TCTTTCACGTGGTAGC,0.25
6,CATAGCACGTGAGGGT,0.11
7,TGAATCACGTGGGTTG,0.14
8,TGATGCACGTGTCTTG,-0.07
9,ACAGCCACGTGGGGTG,-0.23
10,TTTGACACGTGTTTGA,0.03
11,TGTCTCACGTGTTTAA,0.26
12,CGGGACACGTGGCGTG,-0.12
13,TGTGGCACGTGAAAGG,0.14
14,GAATGCACGTGAGGCG,0.21
15,AAGGGCACGTGTCAAT,0.04
16,TGGCTCACGTGAATGT,0.19
17,CAATGCACGTGATGGG,0.15
18,GGGATCACGTGGATTA,0.33
19,GGTTTCACGTGCGTGA,0.28
20,TCTGCCACGTGGTTGT,0
21,TGGGGCACGTGTTACG,-0.15
22,AGGCTCACGTGGGTAG,-0.02
23,TAAATCACGTGGATGA,0.16
24,ATGAACACGTGAAGTT,0.43
25,ACTGTCACGTGTTTTA,0.16

row,Sequence,relative binding free energy [kcal/mol]
1,TTATCCACGTGTGAGG,0
2,GTTTTCACGTGCTATA,0.05
3,AGGTGCACGTGACAGT,0
4,ATGTGCACGTGGGAAC,0
5,GTTGACACGTGCGCGG,-0.05
6,ACGATCACGTGGGGGG,-0.06
7,GAGGTCACGTGTATGA,0.17
8,GAGGGCACGTGTAGTG,0
9,GAGGTCACGTGGTGTG,0.14
10,ATTGACACGTGCGTTT,-0.04
11,AGTGCCACGTGCGGGT,-0.16
12,TATGCCACGTGTCGGT,-0.02
13,CTGCGCACGTGATGGG,0.05
14,AATGACACGTGAGGGA,0.18
15,TGGAGCACGTGAGGAT,0.21
16,TAGGACACGTGAAATT,0.51
17,AAGTGCACGTGTGGTA,0.02
18,TCTGACACGTGGGTAA,0.04
19,TGACACACGTGAAGGG,0.35
20,TTGTTCACGTGATAGC,0.35
21,GTGTACACGTGTGAGA,0.06
22,ATCGACACGTGGGGCG,-0.07
23,AGAGTCACGTGGAGAA,0.2
24,TTAATCACGTGTGAGA,0.16
25,TTAGGCACGTGAAGGG,0.17

row,Sequence,relative binding free energy [kcal/mol]
1,AAGAGCACGTGATGGA,-0.01
2,ACGGGCACGTGTTGTG,-0.12
3,GTGGGCACGTGACGTA,-0.06
4,CTTAGCACGTGCAGGT,0
5,ATGGCCACGTGTTGGT,0.04
6,GGTGTCACGTGAGCTG,0.2
7,TTGAACACGTGAATTG,0.43
8,GGTAGCACGTGCGGGA,0.02
9,ATATTCACGTGAGATT,0.32
10,TGTGGCACGTGTGCTG,-0.13
11,AAGTGCACGTGAGCGT,-0.02
12,GGCTCCACGTGTTGTT,0.13
13,TAAGGCACGTGATTAG,-0.06
14,GGTGTCACGTGTGGTA,0.17
15,ATGGGCACGTGTGACA,-0.01
16,TGAGACACGTGATTGG,-0.04
17,ATGGGCACGTGTAGGA,-0.09
18,CGGGTCACGTGCGGGC,0.04
19,TGGGTCACGTGAAGAT,0.35
20,ATTTGCACGTGTTAAA,-0.01
21,TCTTTCACGTGCTTTT,0.09
